Assay results taken from the RNAGym collection of RNA variant scans (doi:10.1093/nar/gkz1192).
The source gives no read counts; variants with many changes may rest on few reads.

B1: CPEB3 Ribozyme (parent)
chain: UAACAGGGGGCCACAGCAGAAGCGUUCACGUCGCAGCCCCUGUCAGAUUCUGGUGAAUCUGCGAAUUCUGCUGUAUAUCUC

Variants of: B1
Assay: self-cleavage, relative activity (ratio to wild type); higher = more cleavage; in vitro, sequencing
Method in brief: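 For each CPEB3 ribozyme variant, relative activity is its cleaved/total read fraction divided by the unmutated ribozyme's. Barcoded error-prone PCR libraries were transcribed by T7 RNA polymerase (5 hours, 37°C) and held in DNase I for 15 min before an EDTA stop, with cleavage occurring throughout. Template-switching reverse transcription and Illumina sequencing were used to read the RNAs. A 5-read minimum applied, and results are the mean of three batches.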

Row | Variant | self-cleavage
1 | UAGCAGGGGGCCACAGAGGAAGCGUUCACGACGCAGCCCCUGUCAGAUUCUGGUGAACCUGCGGAUUCUGCUGCAUAUCUC | 0.07
2 | UAGCAGGGGGCCACAGUAGAAGCGUUCACGUCGCAGCCCCUGUCAGAUUCUGGUGCAUCUGCGAAUUCUGCCGUAUAUCUC | 0.14
3 | UAGCAGGGGGCCACAGUAGAAGUGUCCGCGUCGCAGCCCCUGUCAGAUUCUGGUGAAUCUGCGUAUUCUGCUGUAUAUCUC | 0.04
4 | UAGCAGGGGGCCACAGUAGAAGCGGUCACGUCGCAGCCCCUGUCAGGUUCUGGUGAAUCUGCGAAUUCUGCUGUAUAUCUC | 0.38
5 | UAGCAGGGGGCCACAGUAGAAGCGUCCACGUCGCAGCCCCUGUCAGAUUCUGGCGAAUCUGCGAAUUCUGCCGUAUAUCUC | 0.35
6 | UAGCAGGGGGCCACAGCAGAAGAGUUCACGUCGCAGCCCCUGUCGGAUUCUGGUGAAUCUGCGAAUUCUGCCGUAUGUCUC | 0.26
7 | UAGCAGGGGGCCACAGCAGAAGAGUUCACGUCACAGCCCCUGUCAGAUUCUGGUGAAUCUGCGAAUUCUGCUGUAUAUCUC | 0.31
8 | UAGCAGGGGGCCACAGCAGAAGAGCUCACGUCGCAGCCCCUGUCAGAUUCUGGUGAAUCUGCGAACUCUGCUGAAUAUCUC | 0.17
9 | UAGCAGGGGGCCACAGCAGAAGGGUUCACGUCGUAGCCCCUGUCAGAUUCUGGUGAAUCUGCGAACUCGGCUGUAUAUCUC | 0.08
10 | UAGCAGGGGGCCACAGCAGAAGGGUUCACGUCGCAGCCCCUGUCAGAAUCUGGUGAAUCUGCGAAUUCUGCUGUAUAUCUC | 0.44
11 | UAGCAGGGGGCCACAGCAGAAGUGUUCGCGACGCAGCCCCUGUCAGAUUCUGGUGAGUCUGCGAGUUCUGCUGUAUAUCCC | 0.09
12 | UAGCAGGGGGCCACAGCAGAAGUGUUCACGUCGCGGCCCCUGUCAGAUACUGGUGAAUCUGCGAAUUCUGCUGUAUAUCUC | 0.53
13 | UAGCAGGGGGCCACAGCAGAAGUGUUCACGUCGCAGACCCUGUCAGAUUCUGGUGAAUCUGCGAAUUCUGCUGUAUAUCUC | 0.08
14 | UAGCAGGGGGCCACAGCAGAAGUGCUCACGUCGCAGCCCCUGUCAGAUUCUGGUGAAUCUGCGAAUUCUGCCGUAUAACUC | 0.14
15 | UAGCAGGGGGCCACAGCAGAAGUGUUCACGCCGCGGCCCCCGUCAGAUUCAGGUGAAUCUGCGAAUUCUGCGGUAUAUCUC | 0.18
16 | UAGCAGGGGGCCACAGCAGAAGUGUUCACGUCGCAGCCCCAGUCAGACUCUGGUGAAUCUGCGAAUUCUGCUGUAUAUCUC | 0.12
17 | UAGCAGGGGGCCACAGCAGAAGUGUUCACGUCGCAGCCCCUGUCAGAUUCUGGUGAACCUGCGAAUCCUGCAGUAUAUCUC | 0.05

Row | Variant | self-cleavage
18 | UAGCAGGGGGCCACAGCAGAAGCGUUAACGUCGCAGCCCCAGACAGAUUCUGGUGAAUCUGCGAAUUCUGCUGUAUAUCUC | 0.33
19 | UAGCAGGGGGCCACAGCAGAAGCGUUAACGUCGCAGCCCCUGUCAGACUCUGGUGAAUCUGCGAAUUCUGCUGUAUAUCUC | 0.06
20 | UAGCAGGGGGCCACAGCAGAAGCGUUGACGUCGCAGCCCCUGUCAGAUUCUGGUUAAUCUGCGAGUACUGCUGUAUAUCUC | 0.29
21 | UAGCAGGGGGCCACAGCAGAAGCGUUUACGUCGCAGCCCCUGUCAGAUUCUAGUGAAUCUGCGAAUUCUGCUGUACAUCUC | 0.15
22 | UAGCAGGGGGCCACAGCAGAAGCGUUUACGUCGCAGCCCCCGUCAGAUUCUGGUGAAUCUGCGAAUCCUACUGUAUAUCUC | 0.06
23 | UAGCAGGGGGCCACAGCAGAAGCGUUCAAGUCGCAGCCCCUGUCAGAUUCUGAUGAAUCUGCGAAUUCUGCUGUAUAUCUC | 0.4
24 | UAGCAGGGGGCCACAGCAGAAGCGUUCAAGCCGCAGCCCCAGUCAGAUUCCGGUGAGUCUGCGAAUUCUGCUGUGUAUCUC | 0.04
25 | UAGCAGGGGGCCACAGCAGAAGCGUUCAGGUCGCAGCCCCUGUCGGAUUCUGGUGAAUCUGCGAAUUCUGCUGUAUAUCAC | 0.44
26 | UAGCAGGGGGCCACAGCAGAAGCGUUCAUGUCGCAGCCCCUGUCGGAUUCCGGUGAAUCUGCGAAUUCUGCUGUAUAUCUC | 0.2
27 | UAGCAGGGGGCCACAGCAGAAGCGUUCAUGUCGCAGCCCCUGUCAGUUUCUGGUGAAUCUACGAAUUCUGCUGAAUAUCUC | 0.36
28 | UAGCAGGGGGCCACAGCAGAAGCGUUCAUGUCGCAGCCCCUGUCAGAUUCUGGUGACUCUGCGAAUUCUGCUGCAUAUCUC | 0.74
29 | UAGCAGGGGGCCACAGCAGAAGCGUUCAUGUCGCAGCCCCUGUCAGAUUCUGGUGAAUCUGGGAAUUCUGCAGUAUAUCUC | 0.15
30 | UAGCAGGGGGCCACAGCAGAAGCGUUCAUGUCGCAGCCCCUGGCAGAUUCUGGUGAAUCCGCGAAUUCUGCAGUAUAUCUC | 0.06
31 | UAGCAGGGGGCCACAGCAGAAGCGUUCAUGUCGCAGCCCCUGUCAGAUCCUGGUGAAUCUGCGAAUUCCGCUGUAUAUCCC | 0.07
32 | UAGCAGGGGGCCACAGCAGAAGCGUUCAUGUCGCAGCCCCUGUCAGAUUCUGGUGAAUCUGCGAAUGCAGCUGUAUAUCUC | 0.22
33 | UAGCAGGGGGCCACAGCAGAAGCGUUCACGUAGCAGCCCCUGUCAGAGCCUGGUGAAUUUGCGAAUUCUGCUGUAUAUCUC | 0.09
34 | UAGCAGGGGGCCACAGCAGAAGCGUUCACGUGGCAGCCCCUGUCAGAUUCUGGUGAAUCUGCGUAUUCUGCUGUAUAUCUC | 0.23
